# Measurements reported in article PMC4049815.
# Amino acid sequences for entries named in this document (tags omitted).
# UniProt O88907: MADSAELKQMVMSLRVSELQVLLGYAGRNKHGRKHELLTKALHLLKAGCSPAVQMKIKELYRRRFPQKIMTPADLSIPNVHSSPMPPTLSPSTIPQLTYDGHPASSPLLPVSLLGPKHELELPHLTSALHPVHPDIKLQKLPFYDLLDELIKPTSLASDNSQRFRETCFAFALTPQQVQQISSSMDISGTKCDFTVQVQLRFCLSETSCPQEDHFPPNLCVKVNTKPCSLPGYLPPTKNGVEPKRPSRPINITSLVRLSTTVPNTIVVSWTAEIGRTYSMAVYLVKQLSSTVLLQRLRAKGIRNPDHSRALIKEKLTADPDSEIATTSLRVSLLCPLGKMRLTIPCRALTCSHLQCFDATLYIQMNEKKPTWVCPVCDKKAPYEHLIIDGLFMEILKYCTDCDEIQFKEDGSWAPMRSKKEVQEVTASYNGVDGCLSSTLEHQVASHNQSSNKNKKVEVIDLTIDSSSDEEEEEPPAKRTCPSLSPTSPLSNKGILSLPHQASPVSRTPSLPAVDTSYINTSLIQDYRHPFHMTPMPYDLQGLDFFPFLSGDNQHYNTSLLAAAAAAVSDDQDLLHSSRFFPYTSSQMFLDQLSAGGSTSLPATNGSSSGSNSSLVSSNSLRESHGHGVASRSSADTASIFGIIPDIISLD
# These are yes or no findings as the source states them, for the method shown. Binding seen in cells or lysates may run through a third protein. Some binding calls cover weakened binding; strength is not graded here. Tags and fused reporters may be left off the sequences shown.
# T1: FLAG-tagged necdin (full-length) (mouse) (UniProt P25233)
# T1 sequence: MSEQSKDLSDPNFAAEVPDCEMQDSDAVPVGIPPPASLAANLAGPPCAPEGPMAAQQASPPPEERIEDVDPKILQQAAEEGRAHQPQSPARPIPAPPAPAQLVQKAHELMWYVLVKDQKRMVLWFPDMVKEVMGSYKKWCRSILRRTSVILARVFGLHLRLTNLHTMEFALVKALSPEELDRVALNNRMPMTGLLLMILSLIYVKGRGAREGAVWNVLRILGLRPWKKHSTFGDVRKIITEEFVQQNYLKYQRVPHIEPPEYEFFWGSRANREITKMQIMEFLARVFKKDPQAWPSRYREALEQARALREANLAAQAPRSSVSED
# T2: FLAG-tagged necdin aa 1-100 (NT) (mouse) (UniProt P25233)
# T2 sequence: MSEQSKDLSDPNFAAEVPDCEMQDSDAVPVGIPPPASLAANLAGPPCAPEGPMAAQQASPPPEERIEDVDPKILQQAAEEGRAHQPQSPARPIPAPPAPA
# T3: FLAG-tagged necdin aa 101-325 (CT) (mouse) (UniProt P25233)
# T3 sequence: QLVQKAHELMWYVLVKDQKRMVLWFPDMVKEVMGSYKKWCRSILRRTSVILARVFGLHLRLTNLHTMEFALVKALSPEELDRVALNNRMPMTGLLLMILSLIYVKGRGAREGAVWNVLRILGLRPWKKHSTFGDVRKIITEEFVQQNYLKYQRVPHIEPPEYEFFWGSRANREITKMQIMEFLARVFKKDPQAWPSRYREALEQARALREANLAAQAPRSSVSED
# T4: FLAG-tagged MAGEF1 (human) (UniProt Q9HAY2)
# T4 sequence: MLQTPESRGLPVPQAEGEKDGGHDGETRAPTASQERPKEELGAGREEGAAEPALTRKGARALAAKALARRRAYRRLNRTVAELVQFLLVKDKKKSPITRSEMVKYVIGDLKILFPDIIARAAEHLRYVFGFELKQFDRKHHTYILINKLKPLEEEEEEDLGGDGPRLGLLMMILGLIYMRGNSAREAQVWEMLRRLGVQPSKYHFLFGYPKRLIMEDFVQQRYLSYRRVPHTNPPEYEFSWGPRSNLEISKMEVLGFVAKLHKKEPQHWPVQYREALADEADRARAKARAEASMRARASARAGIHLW
# T5: FLAG-tagged necdin-like 2 (mouse) (UniProt Q9CPR8)
# T5 sequence: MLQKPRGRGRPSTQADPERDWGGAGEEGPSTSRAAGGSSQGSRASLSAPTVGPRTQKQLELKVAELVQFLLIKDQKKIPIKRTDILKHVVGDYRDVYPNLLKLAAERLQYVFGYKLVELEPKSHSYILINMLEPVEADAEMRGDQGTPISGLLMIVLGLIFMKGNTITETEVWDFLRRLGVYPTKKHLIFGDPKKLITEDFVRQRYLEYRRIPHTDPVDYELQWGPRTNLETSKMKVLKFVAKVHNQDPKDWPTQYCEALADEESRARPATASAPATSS
# Legend:
# [1] = molecular target: T1, FLAG-tagged necdin (full-length) (mouse); assay: co-IP; HEK293A cells co-transfected with Myc-PIAS1 and FLAG-tagged necdin FL, CT or NT; precipitated proteins analysed with antibodies to Myc and FLAG
# [2] = molecular target: T2, FLAG-tagged necdin aa 1-100 (NT) (mouse); assay: as above
# [3] = molecular target: T3, FLAG-tagged necdin aa 101-325 (CT) (mouse); assay: as above
# [4] = molecular target: T4, FLAG-tagged MAGEF1 (human); assay: co-IP; HEK293A cells co-transfected with FLAG-tagged MAGE proteins and Myc-tagged E3 ligases; lysates (10 mM Tris-HCl pH 8.0, 150 mM NaCl, 1 mM EDTA, 1% IGEPAL CA-630, 10% glycerol) precipitated with anti-FLAG antibody at 4°C for 2 hrs, blotted with anti-Myc
# [5] = molecular target: T5, FLAG-tagged necdin-like 2 (mouse); assay: as above
Molecule,binding [1],binding [2],binding [3],binding [4],binding [5]
Myc-tagged PIAS1 (full-length) (from UniProt O88907 1-651) (enzyme),binds,no binding,binds,binds,no binding
"Myc-tagged Nsmce1 (enzyme, UniProt Q9D720 1-266) MQGSTRRAGAMTDVHRRFLQLLMTHGVLEEWEVRRLQNHCYQVHDRNATVDKLEDFINNINSVLESLYIEIKKGVTEDDGRPIYALVNLATTSVSKMATDFAENELDLFRKALELIVDSETGFASSTNILNLVDQLKGKKMRKKEAEQVLQKFVQSKWLIEKEGEFTLHGRAILEMEQFIRESYPDSVKMCNICHGLLIQGQSCETCGIRMHLPCVAKYFQSIPEPHCPHCNDYWPHDIPEVYNPEKEREAGISKSSRKSLRTRQH",,,,binds,binds
"Myc-tagged Nsmce2 (enzyme, UniProt Q91VT1-1 1-247) MPGRSSTSSGSTRYISFSGIESALSSLKNFQSCISSGMDTVSSVALDLVETQTEVSSEYSMDKAMVEFAKMDRELSHYVKAVQSTINHVKEERPEKVPDLKLLVEKKFLALQDKNSDADFKENEKFVQFKQQLRELKKQYGIHADRENDLTEGVDEDMIVTQSQTNFICPITQLEMKKPVKNKMCGHTYEEEAIVRMIESKHKRKKKACCPKIGCSHTDMRMSDLIPDEALRRAIESHNKKKKRHSE",,,,no binding,no binding
"Myc-tagged Cbx4 (enzyme, UniProt O55187-1 1-551) MELPAVGEHVFAVESIEKKRIRKGRVEYLVKWRGWSPKYNTWEPEENILDPRLLIAFQNRERQEQLMGYRKRGPKPKPLVVQVPTFARRSNVLTGLQDSSADNRAKLELGTQGKGQGHQYELNSKKHHQYQPHSKERSGKPPPPGKSGKYYYQLNSKKHHPYQPDPKMYDLQYQGGHKEAPSPTCPDLGTKSHPPDKWAHGAAAKGYLGAVKPLGGGAGAPGKGSEKGPPNGMTPAPKEAVTGNGIGGKMKIVKNKNKNGRIVIVMSKYMENGMQAVKIKSGEAAEGEARSPSHKKRAAEERHPQGDRTFKKAAGASEEKKAEVPCKRREEEALVSGDAQPQDLGSRKLSPTKEAFGEQPLQLTTKPDLLAWDPARSSHPPAHHHHHHHHHHHHHTVGLNLSHARKRCLSETHGEREPCKKRLTARSISTPTCLGGSPVSEHPANVSPTAASLPQPEVILLDSDLDEPIDLRCVKMRSDAGEPPSTLQVKPEAPAVAAVVAPAPASEKPPAEAQEEPVEPLSEFKPFFGNIIITDVTANCLTVTFKEYVTV",,,,no binding,no binding
